In patent publication US20230322822A1, “ARYL PHOSPHOROUS OXIDE COMPOUNDS AND USE THEREOF” (Chengdu Di'ao Jiuhong Pharmaceutical Factory, priority 2020, published 2023):
pIC50: −log10 of the molar value.

Key:
[1] = target: EGFR-T790M/Del19 (Homo sapiens, UniProt P00533, T790M, form not given); assay: Enzymatic activity test (ADP-Glo) EGFR-T790M/Del19; format: biochemical; conditions: kinase
Procedure: (§1) • 1. […] Test information:
(§2) To assess the effect of compounds on the activity of wild-type and mutant EGFR kinases, kinase activity was tested by measuring ATP consumption in an enzymatic reaction using an ADP-Glo (Promega Corporation) kit. Samples to be tested were dissolved in DMSO and diluted in a gradient. In a microplate, an EGFR kinase, a reaction buffer (containing Tris-HCl with a pH of 7.5, MgCl2, DTT and BSA), a kinase substrate Poly(Glu4, Tyr1) and a sample (a total volume of 20 μL per well) were added per well, while a blank control (no enzyme and sample) and a negative control (no sample) were set up; incubated for 15 minutes at 23° C.; added with 5 μL of ATP, and reacted at 23° C. for 60 minutes; added with ADP-Glo Reagent, and continuously reacted for 40 minutes at room temperature to inactivate the redundant ATP; then, added with a Kinase Detection Reagent, and reacted at room temperature for 30 minutes, then the chemiluminescence intensity L of each well was measured. […] IC50 values were calculated according to the above calculation using 4Parameter Logistic Model in XLfit software. • 3.

[2] = target: EGFR-T790M/L858R (Homo sapiens (Human), UniProt P00533, L858R/T790M); assay: Enzymatic activity test (ADP-Glo) EGFR-T790M/L858R; format: biochemical; conditions: kinase
Procedure: as §1, §2

EGFR-T790M/L858R, sequence (P00533 25-1210 T790M/L858R): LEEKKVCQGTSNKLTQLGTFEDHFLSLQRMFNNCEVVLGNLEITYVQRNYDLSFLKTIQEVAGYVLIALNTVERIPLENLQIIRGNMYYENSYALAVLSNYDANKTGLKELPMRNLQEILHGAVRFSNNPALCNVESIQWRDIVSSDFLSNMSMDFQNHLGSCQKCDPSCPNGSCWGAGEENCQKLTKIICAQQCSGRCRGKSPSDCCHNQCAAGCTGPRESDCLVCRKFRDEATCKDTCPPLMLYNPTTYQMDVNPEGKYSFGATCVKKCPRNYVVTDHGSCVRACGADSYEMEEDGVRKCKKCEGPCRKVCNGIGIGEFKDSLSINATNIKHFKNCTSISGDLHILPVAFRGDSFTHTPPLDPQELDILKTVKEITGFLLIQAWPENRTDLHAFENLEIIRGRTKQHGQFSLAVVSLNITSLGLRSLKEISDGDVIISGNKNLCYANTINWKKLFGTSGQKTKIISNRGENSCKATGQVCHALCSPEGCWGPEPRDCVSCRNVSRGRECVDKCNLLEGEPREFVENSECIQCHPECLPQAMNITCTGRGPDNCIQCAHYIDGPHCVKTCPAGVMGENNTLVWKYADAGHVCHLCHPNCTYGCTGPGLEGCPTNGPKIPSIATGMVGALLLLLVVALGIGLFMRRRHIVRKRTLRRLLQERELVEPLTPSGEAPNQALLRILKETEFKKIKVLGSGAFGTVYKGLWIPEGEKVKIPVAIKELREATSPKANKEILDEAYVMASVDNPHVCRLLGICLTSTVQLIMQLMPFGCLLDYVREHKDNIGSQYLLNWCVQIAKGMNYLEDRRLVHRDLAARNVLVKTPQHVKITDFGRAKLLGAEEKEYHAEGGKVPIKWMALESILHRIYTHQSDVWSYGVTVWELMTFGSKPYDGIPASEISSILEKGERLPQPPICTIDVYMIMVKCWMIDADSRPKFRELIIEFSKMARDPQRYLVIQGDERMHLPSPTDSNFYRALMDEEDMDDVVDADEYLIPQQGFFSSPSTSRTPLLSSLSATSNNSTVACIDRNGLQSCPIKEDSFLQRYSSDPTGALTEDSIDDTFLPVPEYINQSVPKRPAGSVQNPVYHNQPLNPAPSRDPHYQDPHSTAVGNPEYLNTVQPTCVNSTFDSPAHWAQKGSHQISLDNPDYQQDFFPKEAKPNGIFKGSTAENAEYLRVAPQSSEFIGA

How did the pIC50 [1] turn out when `COc1cc(N2CCC(N(C)C)CC2)c(C)cc1Nc1ncc(Cl)c(Nc2ccc(C)cc2P(C)(C)=O)n1` [Compound 5] was run?
Its pIC50 is 8.72.

What about the pIC50 [2] of the same molecule?
Its pIC50 is 7.39.
